{"source": "paper PMC4336329", "about": "(PLoS ONE, 2015)", "note": "The campaign covered roughly 310,000 compounds. About 14,000 (4.5%) showed an effect of 50% or more. Effects have a minus sign here. The list shows a part of the results.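 Further: peak tail current of the secondary pulse compared with the same well before compound.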"}
{"biological_target": "human ether-à-go-go-related gene (hERG) potassium channel (human, UniProt Q12809)", "sequence (Q12809 whole entry, looked up)": "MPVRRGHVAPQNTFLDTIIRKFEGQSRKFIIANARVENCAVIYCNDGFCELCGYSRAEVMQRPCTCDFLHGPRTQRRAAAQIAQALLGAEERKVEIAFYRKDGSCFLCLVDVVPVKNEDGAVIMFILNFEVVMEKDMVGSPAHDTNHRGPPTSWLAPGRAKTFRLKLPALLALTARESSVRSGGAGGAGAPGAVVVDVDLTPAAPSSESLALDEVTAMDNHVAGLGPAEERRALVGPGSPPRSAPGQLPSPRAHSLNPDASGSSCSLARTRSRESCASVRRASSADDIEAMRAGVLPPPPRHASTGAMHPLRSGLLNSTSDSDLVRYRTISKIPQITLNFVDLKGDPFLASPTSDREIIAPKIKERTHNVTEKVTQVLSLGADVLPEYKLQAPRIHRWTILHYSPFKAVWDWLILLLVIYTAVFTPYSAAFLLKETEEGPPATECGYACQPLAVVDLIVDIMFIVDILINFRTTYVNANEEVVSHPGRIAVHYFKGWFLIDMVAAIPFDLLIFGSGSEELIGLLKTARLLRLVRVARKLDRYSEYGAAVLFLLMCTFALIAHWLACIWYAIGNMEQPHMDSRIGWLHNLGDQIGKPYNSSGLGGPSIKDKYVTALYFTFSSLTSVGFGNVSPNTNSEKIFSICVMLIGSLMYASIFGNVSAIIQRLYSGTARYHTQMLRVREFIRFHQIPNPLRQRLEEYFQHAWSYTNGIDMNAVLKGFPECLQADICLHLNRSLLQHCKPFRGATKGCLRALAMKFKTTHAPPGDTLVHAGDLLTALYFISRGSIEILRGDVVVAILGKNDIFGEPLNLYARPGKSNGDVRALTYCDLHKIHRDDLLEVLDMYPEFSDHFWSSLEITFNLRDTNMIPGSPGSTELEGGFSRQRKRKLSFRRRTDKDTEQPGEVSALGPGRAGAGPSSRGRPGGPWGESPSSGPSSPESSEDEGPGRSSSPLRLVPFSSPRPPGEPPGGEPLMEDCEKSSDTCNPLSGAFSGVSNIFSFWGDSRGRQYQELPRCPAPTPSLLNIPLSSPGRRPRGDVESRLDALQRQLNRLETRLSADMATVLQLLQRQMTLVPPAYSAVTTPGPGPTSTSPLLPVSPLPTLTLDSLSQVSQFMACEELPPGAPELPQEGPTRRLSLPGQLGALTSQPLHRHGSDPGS", "assay": "primary screen, population patch clamp on CHO cells stably expressing hERG", "units": {"hERG current change (%, negative = inhibition) at 10uM": "%"}}
{"compound": "COc1ccc(C(=O)N2CCN(c3nc(C4CC4)nc4sc(C)c(C)c34)CC2)cc1.Cl", "hERG current change (%, negative = inhibition) at 10uM": -23.8}
{"compound": "Cc1nn(C)c(C(=O)Nc2cccc(CN3CCOCC3)c2)c1Br", "hERG current change (%, negative = inhibition) at 10uM": -7.27}
{"compound": "Cc1cc(NC(=O)c2cc(-c3ccc(Br)cc3)on2)no1", "hERG current change (%, negative = inhibition) at 10uM": 17.6}
{"compound": "O=C(COC(=O)c1cccc(S(=O)(=O)N2CCCC2)c1)Nc1ccccc1", "hERG current change (%, negative = inhibition) at 10uM": 26.8}
{"compound": "O=C(Nc1ccccc1)N(CCCN1CCOCC1)Cc1cc2cc3c(cc2[nH]c1=O)OCCO3", "hERG current change (%, negative = inhibition) at 10uM": -2.99}
{"compound": "COCCn1nnnc1C(C(C)C)N1CCC(Cc2ccccc2)CC1.Cl", "note": "(stereo not drawn)", "hERG current change (%, negative = inhibition) at 10uM": -46.4}
{"compound": "CN(/C(=N\\S(=O)(=O)c1ccccc1)c1ccccc1)c1ccc(O)cc1", "hERG current change (%, negative = inhibition) at 10uM": -0.143}
{"compound": "OC(c1ccccc1)c1nccc2ccccc12", "note": "(stereo not drawn)", "hERG current change (%, negative = inhibition) at 10uM": 9.28}
{"compound": "Cc1ccc(C)c(N2CCN(C(=O)CCCCCn3c(=S)[nH]c4ccc(N5CCOCC5)cc4c3=O)CC2)c1", "hERG current change (%, negative = inhibition) at 10uM": 9.11}
{"compound": "CCCNC(=O)c1[nH]c(C)c(C(C)=O)c1C", "hERG current change (%, negative = inhibition) at 10uM": 19.3}
{"compound": "CCCc1nn2c(=O)cc(COc3ccc(NC(=O)c4ccco4)cc3)nc2s1", "hERG current change (%, negative = inhibition) at 10uM": 5.08}
{"compound": "Cn1nnc2cc(C(=O)NC3CC3)ccc21", "hERG current change (%, negative = inhibition) at 10uM": -23.8}
{"compound": "CCOC(=O)C1CCN(C(=O)C(C)Sc2ccc(Cl)cc2)CC1", "note": "(stereo not drawn)", "hERG current change (%, negative = inhibition) at 10uM": -27.9}
{"compound": "O=C(CSc1nnc(-c2c[nH]c3ccccc23)n1-c1ccc(F)cc1)NCc1ccco1", "hERG current change (%, negative = inhibition) at 10uM": -22}
{"compound": "Cn1c(=O)c2c(nc(CN3CCCCC3)n2CCCc2ccccc2)n(C)c1=O", "hERG current change (%, negative = inhibition) at 10uM": -29.1}
{"compound": "COCc1cc(CN2CCCC(C(=O)c3cccc(C(F)(F)F)c3)C2)ccc1OC", "note": "(stereo not drawn)", "hERG current change (%, negative = inhibition) at 10uM": -63.1}
{"compound": "CS(=O)(=O)N1N=C(c2cccs2)CC1c1ccc(Cl)o1", "note": "(stereo not drawn)", "hERG current change (%, negative = inhibition) at 10uM": -8.09}
{"compound": "N#Cc1c(N2CCNCC2)nc(-c2ccco2)c2c1CCCC2", "hERG current change (%, negative = inhibition) at 10uM": -11.2}
{"compound": "NNC(=O)CCS(=O)(=O)c1ccc2ccccc2c1", "hERG current change (%, negative = inhibition) at 10uM": 16.1}
{"compound": "CC1CCCC(C)N1C(=O)c1ccc(S(=O)(=O)N2CCCC2)cc1", "note": "(stereo not drawn)", "hERG current change (%, negative = inhibition) at 10uM": -0.197}
{"compound": "COCCN1C=C2C(=O)C(C)(OC(=O)C3CCCC3)C(=O)C(c3ccccc3)=C2C=C1CCCC(=O)OC", "note": "(stereo not drawn)", "hERG current change (%, negative = inhibition) at 10uM": -2.4}
{"compound": "CC(C)NCCOCCSc1ccc(Cl)cc1.O=C(O)C(=O)O", "hERG current change (%, negative = inhibition) at 10uM": -30.2}
{"compound": "CCO[C@@H]1OC(C(=O)N2CCN(C)CC2)=C[C@H](c2csc3ccccc23)[C@H]1CCCO", "hERG current change (%, negative = inhibition) at 10uM": -4.86}
{"compound": "CC(=O)CSc1nc2ccccc2o1", "hERG current change (%, negative = inhibition) at 10uM": 19.9}
{"compound": "COc1cc2cc(C(c3nnnn3C(C)(C)C)N3CCc4ccccc43)c(=O)[nH]c2cc1OC", "note": "(stereo not drawn)", "hERG current change (%, negative = inhibition) at 10uM": -8.44}
{"compound": "COc1ccc(C(CC(=O)c2ccccc2)S(=O)(=O)c2ccc(C)cc2)cc1", "note": "(stereo not drawn)", "hERG current change (%, negative = inhibition) at 10uM": 12.8}
{"compound": "Cc1ccccc1C(=O)NC1CCN(CC(=O)N2CCCCC2C)CC1", "note": "(stereo not drawn)", "hERG current change (%, negative = inhibition) at 10uM": 6.93}
{"compound": "CCCN(CCC)Cc1c(C(=O)N/N=C/c2ccc(C)o2)nnn1-c1nonc1N", "hERG current change (%, negative = inhibition) at 10uM": 6.29}
{"compound": "O=C(c1ccccc1)C1CN(c2ccccc2)CC1c1ccc(Cl)cc1", "note": "(stereo not drawn)", "hERG current change (%, negative = inhibition) at 10uM": 27.1}
{"compound": "CCCCn1c(N)c(N(CC(C)C)C(=O)c2cc(=O)[nH]c3ccccc23)c(=O)[nH]c1=O", "hERG current change (%, negative = inhibition) at 10uM": 3.49}
{"compound": "CC(C)CC(=O)NCC(C)NC(=O)CC(C)C", "note": "(stereo not drawn)", "hERG current change (%, negative = inhibition) at 10uM": 3.51}
{"compound": "O=C(NC1CCCc2ccccc21)C1CCC(CNS(=O)(=O)c2cccc3nsnc23)CC1", "note": "(stereo not drawn)", "hERG current change (%, negative = inhibition) at 10uM": -4.65}
{"compound": "CC(C)(C)c1cc(CCC(=O)NCC2CCCO2)cc(C(C)(C)C)c1O", "note": "(stereo not drawn)", "hERG current change (%, negative = inhibition) at 10uM": 12.6}
{"compound": "O=c1[nH]c2ccc(NC(=S)NCCc3ccccc3)cc2[nH]1", "hERG current change (%, negative = inhibition) at 10uM": 5}
{"compound": "CCOC(=O)Nc1nc(C)c(C(=O)c2ccc(Cl)cc2)s1", "hERG current change (%, negative = inhibition) at 10uM": 22.8}
{"compound": "COc1ccc(OC)c(C(c2nnnn2C2CCCC2)N2CCc3ccccc3C2)c1", "note": "(stereo not drawn)", "hERG current change (%, negative = inhibition) at 10uM": -11.1}
{"compound": "O=C1C2CCCN2C(c2ccccc2F)N1c1ccc(Cl)cc1", "note": "(stereo not drawn)", "hERG current change (%, negative = inhibition) at 10uM": 3.77}
{"compound": "N#Cc1ccccc1S(=O)(=O)Nc1ccc2c(c1)OCCO2", "hERG current change (%, negative = inhibition) at 10uM": 10.5}
{"compound": "CC(C)CC(=O)O/N=C1\\C(=O)N(c2ccccc2)c2ccccc21", "hERG current change (%, negative = inhibition) at 10uM": 28.7}
{"compound": "CC(=O)c1c(C)nc(-c2ccc3c(c2)OCO3)n1O", "hERG current change (%, negative = inhibition) at 10uM": 0.643}
{"compound": "Cc1cc(OC(=O)c2cccc([N+](=O)[O-])c2)c(C)cc1CN1CCOCC1", "hERG current change (%, negative = inhibition) at 10uM": -3.33}
{"compound": "O=C(N/N=C/c1ccc([N+](=O)[O-])o1)C(O)c1ccccc1", "note": "(stereo not drawn)", "hERG current change (%, negative = inhibition) at 10uM": -0.231}
{"compound": "N#Cc1ccccc1-n1c(N)c(C(=O)N2CCCC2)sc1=S", "hERG current change (%, negative = inhibition) at 10uM": -7.44}
{"compound": "O=c1ccc(S(=O)(=O)N2CCC(Cc3ccccc3)CC2)c[nH]1", "hERG current change (%, negative = inhibition) at 10uM": -1.29}
{"compound": "CC(=O)Nc1ccc(S(=O)(=O)Nc2nc3ccccc3nc2Nc2ccc(O)cc2)cc1", "hERG current change (%, negative = inhibition) at 10uM": -12.2}
{"compound": "Cc1ccsc1C(=O)C1CCCN(Cc2cc(F)ccc2-n2cccn2)C1", "note": "(stereo not drawn)", "hERG current change (%, negative = inhibition) at 10uM": -82.9}
{"compound": "CCOC(=O)c1ccccc1NC(=O)CSc1nnc(C(C)C)n1CC", "hERG current change (%, negative = inhibition) at 10uM": -9.02}
{"compound": "CCCCCN(C(=O)CCC(=O)OCCOc1ccc(OC)cc1)c1c(N)n(CCCC)c(=O)[nH]c1=O", "hERG current change (%, negative = inhibition) at 10uM": -27.5}
{"compound": "O=C(CN1C(=O)C(=O)c2ccccc21)OCN1C(=O)c2ccccc2C1=O", "hERG current change (%, negative = inhibition) at 10uM": 16.5}
{"compound": "Cc1ccc(C)c(S(=O)(=O)N2CCC3(CC2)OCCN3S(=O)(=O)c2cccs2)c1", "hERG current change (%, negative = inhibition) at 10uM": 5.64}
{"compound": "CC(=O)Nc1ccc(S(=O)(=O)NC2(C(F)(F)F)C(=O)Nc3c2c(=O)n(C)c(=O)n3C)cc1", "note": "(stereo not drawn)", "hERG current change (%, negative = inhibition) at 10uM": 3}
{"compound": "COc1ccc(OC)c(N(CC(=O)NCCSCc2ccc(C)cc2)S(C)(=O)=O)c1", "hERG current change (%, negative = inhibition) at 10uM": -6.1}
{"compound": "CC1(C)C(N(O)C(=O)Nc2ccc(Cl)cc2)N(c2ccc(Cl)cc2)C(=O)N1CC(=O)NN", "note": "(stereo not drawn)", "hERG current change (%, negative = inhibition) at 10uM": -14.6}
{"compound": "COC(=O)c1nn(-c2ccc(OC)cc2)c(=O)cc1Oc1cccc(Cl)c1", "hERG current change (%, negative = inhibition) at 10uM": -10.9}
